Out of some 43,000 compounds screened, about 200 (0.47%) were called active. Inconclusive means that the source gave no clear call. Such entries were picked first, then a sample of the others. Calls come from the whole dose curve; as a rule, active = well fitted cell-killing curve with a large enough effect; inconclusive = small, poorly fitted or top-dose-only effect, or effect the other way; inactive = flat fitted curve, though single readings scatter. Potencies beside an inconclusive call are fits to weak or partial responses and may not hold up.
assay: Cell viability qHTS assay in S16 Pmp22-F2sN cells; settings: S16 Pmp22-F2sN Schwann cells viability, CellTiter-Glo, 24 h; activity change, negative = cytotoxicity: at 57.5 µM (top of the series); note: nearly all actives have a fitted effect of over 65% in size
How it was run: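 Used to flag compounds lowering reporter output through toxicity, this quantitative HTS measures ATP-based CellTiter-Glo luminescence in S16 Pmp22-F2sN Schwann cells after 24 h compound exposure at 37C.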
% is set by controls: 0 for no effect and ±100 for the full control effect; potency is the fitted concentration of half-maximal effect; tags give direction and shape of the fitted curve.

| SMILES | Potency | activity change, negative = cytotoxicity |
| --- | --- | --- |
| COCCCNC(=O)c1sc2nc(C)c(C(=O)Nc3ccc(C)cc3C)c(-c3ccc(Cl)cc3)c2c1N | inconclusive: 39.8 µM [cytotoxic, single point] |  |
| CC(=O)Nc1ccc(S(=O)(=O)N2CCC(Oc3ccc(-n4cnnn4)cc3)CC2)cc1 | inconclusive: 35.5 µM [cytotoxic, partial curve, poor fit] |  |
| Cc1ccc(-c2cc(C(=O)NCCc3ccccc3)c3c(-c4ccc(C)cc4)[nH]nc3n2)cc1 | inconclusive: 31.6 µM [cytotoxic, single point] |  |
| CCn1c(=O)c2cc(C(=O)NCCCN3CCC(C)CC3)sc2c2ccccc21 | inconclusive: 39.8 µM [cytotoxic, single point] |  |
| COc1ccc(-c2onc(C)c2C)cc1S(=O)(=O)NCC1CCN(Cc2cc(C)ccc2C)CC1 | inconclusive: 28.2 µM [cytotoxic, single point] |  |
| COc1ccc2nc(C)cc(Nc3ccc(Cl)c(Cl)c3)c2c1 | inconclusive: 25.1 µM [cytotoxic, single point] |  |
| O=C(Oc1ccc(Cl)cc1)c1cc(-c2ccc3c(c2)OCCO3)on1 | inactive |  |
| COc1ccc(C)cc1NC(=O)C(Cc1ccccc1)NS(=O)(=O)c1cccs1 (centres undefined) | inactive |  |
| Cc1ccc(Cn2c(C(=O)O)c(CNC3CCCC3)c3ccc(C)cc32)cc1 | inconclusive: 25.1 µM [rising, partial curve, poor fit] |  |
| COc1ccccc1Nc1nn2c(=O)c3ccc(C(=O)NCCC4=CCCCC4)cc3nc2s1 | inconclusive: 39.8 µM [cytotoxic, single point] |  |
| Clc1cccc(-n2ncc3c(NCCCn4ccnc4)ncnc32)c1 | inconclusive: 31.6 µM [cytotoxic, single point] |  |
| CCCCn1c(NCc2ccc(N(C)C)cc2)nc2ccccc21 | inconclusive: 39.8 µM [cytotoxic, single point] |  |
| O=C(CCOc1ccccc1)N(Cc1cccnc1)c1nc2c(F)cccc2s1 | inconclusive: 39.8 µM [cytotoxic, single point] |  |
| O=C(Nc1ccc(Cl)c(C(F)(F)F)c1)C1CCN(S(=O)(=O)c2cccc3nonc23)CC1 | inactive |  |
| COc1ccc(Cl)cc1NC(=O)CSc1cn(CC(=O)N2CCCCCC2)c2ccccc12 | inconclusive: 39.8 µM [cytotoxic, single point] |  |
| COc1ccc(CC2C(=O)Nc3ccc(Br)cc32)cc1OC (centres undefined) | inactive |  |
| COc1ccccc1N1CCN(CCCNC(=O)c2cnn(-c3cccc(Cl)c3)c2C2CCN(C(=O)OC(C)(C)C)CC2)CC1 | inconclusive: 28.2 µM [cytotoxic, single point] |  |
| CCOc1ccc(CNC(=O)Cn2cc3c(n2)-c2c(oc(C(=O)N4CCOCC4)c2C)CC3)cc1 | inconclusive: 25.1 µM [cytotoxic, single point] |  |
| CC(=O)Nc1ccc2nc(-c3cc(C)ccc3C)[nH]c2c1 | inconclusive: 20 µM [cytotoxic, single point] |  |
| CCc1cccc(-n2nnc(-c3nsc(NC(=O)c4cccs4)n3)c2C)c1 | inactive |  |
| Cc1ccc(OCc2ccc(-c3nc(C#N)c(NCc4cccnc4)o3)o2)cc1 | inconclusive: 22.4 µM [cytotoxic, single point] |  |
| CCOC(=O)c1c(C)c(-c2ccccc2)n(CC(=O)Nc2cc(C)ccc2OC)c1C | inactive |  |

| SMILES | Potency | activity change, negative = cytotoxicity |
| --- | --- | --- |
| Cc1ccc(CNC(=O)CCCn2c(=O)c3ccccc3n(CC(=O)Nc3ccc(C)c(C)c3)c2=O)cc1 | inconclusive: 12.6 µM [rising, partial curve, poor fit] |  |
| COC(=O)NCC(c1cccnc1)N1CCN(c2ccc(F)cc2)CC1 (centres undefined) | inactive |  |
| COc1ccc(C2=CC(c3ccccc3Cl)n3nc(-c4ccc(Cl)cc4)nc3N2)cc1 (centres undefined) | inactive |  |
| COc1cccc(-c2nnc(-c3ccccc3NC(=O)c3ccc(F)cc3F)o2)c1 | inconclusive: 4.47 µM [rising, partial curve, poor fit] |  |
| Cc1ccc(NS(=O)(=O)c2ccc3[nH]c4c(c3c2)CCCC4)cc1N(C)C | inconclusive: 31.6 µM [cytotoxic, partial curve, poor fit] |  |
| Cc1ccc(CNC(=O)c2nc(SCc3ccccc3C)ncc2Cl)cc1 | inactive |  |
| CCC(=O)N1CCc2cc(Br)cc(S(=O)(=O)N3CCN(c4ccccc4OC)CC3)c21 | inconclusive: 25.1 µM [rising, partial curve, poor fit] |  |
| CCOC(=O)CC(=O)CSc1nc2ccsc2c(=O)n1Cc1ccccc1 | inactive |  |
| COc1ccc(C)cc1NC(=O)NC(C)c1c(-n2cccc2)sc(C)c1C (centres undefined) | inconclusive: 31.6 µM [cytotoxic, single point] |  |
| CCN(CC)CCCNc1sc(S(=O)(=O)c2ccccc2)nc1S(=O)(=O)c1ccc(Cl)cc1 | inconclusive: 35.5 µM [cytotoxic, single point] |  |
| N=c1n(CCN2CCCCC2)c2ccccc2n1CC(O)COc1ccc(Cl)cc1Cl (centres undefined) | inconclusive: 39.8 µM [cytotoxic, single point] |  |
| COc1ccc(Cn2c(SCc3ccc(C(=O)NCc4cccs4)cc3)nc3cccnc32)cc1 | inconclusive: 39.8 µM [cytotoxic, single point] |  |
| Cc1cccc(NC(=O)CS(=O)(=O)c2nc(-c3ccccc3)cn2-c2cccc(Cl)c2)c1C | inconclusive: 35.5 µM [cytotoxic, single point] |  |
| COc1cccc(-c2nc(CS(=O)(=O)CC(=O)Nc3c(C)cc(C)cc3C)c(C)o2)c1 | inconclusive: 28.2 µM [cytotoxic, single point] |  |
| CCCCN1CC(c2nc3ccccc3n2CCCCOc2ccc(C)c(C)c2)CC1=O (centres undefined) | inconclusive: 39.8 µM [cytotoxic, single point] |  |
| CCCC1=Nc2cc(C(=O)NCCc3ccc(OC)cc3OC)ccc2Sc2ccccc21 | inconclusive: 39.8 µM [cytotoxic, single point] |  |
| COc1cc(OC)c(NS(=O)(=O)c2cc(-c3cnc(C)o3)ccc2OC)cc1Cl | inconclusive: 25.1 µM [cytotoxic, partial curve] |  |
| CNC(=O)COc1ccc(NC(=O)CCn2nc(-c3ccc(C)cc3)c3ccccc3c2=O)cc1 | inconclusive: 14.1 µM [cytotoxic, partial curve, poor fit] |  |
| CCOC(=O)c1ccc(N2C(=O)c3n[nH]c(-c4ccco4)c3C2c2ccc(O)c(OC)c2)cc1 (centres undefined) | inactive |  |
| COC(=O)c1scc(-c2ccc(C)cc2)c1S(=O)(=O)N1CCN(c2ccc(OC)cc2)CC1 | inactive |  |
| CCNc1ccc(-c2nc(-c3ccco3)no2)cc1[N+](=O)[O-] | inactive |  |
| Cc1ccccc1NC(=O)c1c(NC(=O)Cc2ccccc2)sc2c1CCC2 | inactive |  |

| SMILES | Potency | activity change, negative = cytotoxicity |
| --- | --- | --- |
| O=C1c2[nH]nc(-c3ccc(Br)cc3)c2C(c2cccc(O)c2)N1c1ccc(Cl)cc1 (centres undefined) | inconclusive: 39.8 µM [cytotoxic, single point] |  |
| Cc1ccc(-n2ncc3c(Nc4ccccc4C)ncnc32)cc1 | inactive |  |
| COc1ccc(-c2cn3nc(N4CCCC(C(=O)NCc5ccccc5OC)C4)sc3n2)cc1 (centres undefined) | inactive |  |
| Cc1ccc(-n2nc(C(=O)Nc3ccc(C)c(F)c3)c3c4ccccc4n(C)c3c2=O)cc1 | inconclusive: 8.91 µM [cytotoxic, partial curve] |  |
| CC(=O)Nc1nonc1-c1nnc(SCC(=O)Nc2ccc(C)c(Cl)c2)n1-c1ccccc1 | inconclusive: 39.8 µM [cytotoxic, single point] |  |
| Cc1ccccc1C(=O)Nc1ccc2c(c1)CCCN2C(=O)c1cccs1 | inconclusive: 28.2 µM [cytotoxic, partial curve] |  |
| COc1ccccc1CNC(=O)c1cnc2sc(N3CCCCCC3)nn2c1=O | inconclusive: 39.8 µM [cytotoxic, single point] |  |
| Cc1ccc(C(=O)Nc2onc3c2CCCC3)cc1 | inactive |  |
| Cc1nc2sc(C(N)=O)c(N)c2c(-c2ccc(Br)cc2)c1C(=O)Nc1ccc(Cl)cc1 | inconclusive: 35.5 µM [cytotoxic, single point] |  |
| COCCNC(=O)CCN1C(=O)c2cccnc2Oc2ccc(C)cc21 | inactive |  |
| CCOC(=O)C1=C(CN2CCN(c3cc(C)ccc3C)CC2)NC(=O)NC1c1ccc(Cl)cc1 (centres undefined) | inconclusive: 28.2 µM [cytotoxic, single point] |  |
| CCCCN(c1ccccc1)S(=O)(=O)c1ccc2c(c1)CC(C)N2C(=O)C1CC1 (centres undefined) | inactive |  |
| COc1ccc(C(=O)Nc2noc3ccccc23)cc1 | inactive |  |
| O=C(CCn1ccc2cc(S(=O)(=O)N3CCCC3)ccc21)NCc1ccccc1Cl | inconclusive: 35.5 µM [cytotoxic, partial curve, poor fit] |  |
| COc1cccc(-c2nnc3sc(CN4CCCCC4)cn23)c1 | inconclusive: 7.08 µM [cytotoxic, partial curve, poor fit] |  |
| CCCc1cc(N2CCN(c3ccc(OC)cc3)CC2)n2cnnc2n1 |  | inconclusive: -31.7% [cytotoxic] |
| COc1ccccc1-c1nc(SCC(=O)Nc2ccc(C)c(C)c2)n[nH]1 | inconclusive: 39.8 µM [cytotoxic, single point] |  |
| CCN(C(=O)CSc1nc2ccccc2n1CC(=O)N1CCCC(C)C1)c1ccccc1 (centres undefined) | inconclusive: 39.8 µM [cytotoxic, partial curve, poor fit] |  |
| CCOc1ccc(CNC(=O)Cc2ccc(NC(=O)N3CCCCc4ccccc43)cc2)cc1OC | inconclusive: 20 µM [cytotoxic, partial curve, poor fit] |  |
| CCc1ccccc1Nc1cc(C(=O)NCCCN(C)C2CCCCC2)c2ccccc2n1 | inconclusive: 28.2 µM [cytotoxic, single point] |  |

Source: PubChem BioAssay AID1508642 (National Center for Advancing Translational Sciences (NCATS), 2021)
